Laboratory results: the RNAGym collection of RNA variant scans (doi:10.7554/elife.90254)
Read counts are not given, so values of variants with three or more changes are uncertain.

B1: LINE1-mini (parent)
chain: GGCAGAGCUCAACACAGCGUGGCAAAGUGGCUGUGGCUAGACUGCC

Variants of: B1
Experiment: self-cleavage, relative activity (ratio to wild type); higher = more cleavage; in vitro, sequencing; the parent is a self-cleaving ribozyme
For GGCAGAGCUCAACUCAGCGUAUCCAAGUGGCUGUGGCUAUACUGCC, the self-cleavage was 0.13.
In the case of GGCAGAGCUCAACUCAGCGUGGCAAAGUGGCUGUGGCUAGUCUACC, the self-cleavage is reported as 0.05.
GGCAGAGCUCAACUCAGCGUGGCAAAGUGGCUGUGGCUAGAGUGCU gave a self-cleavage of 0.03.
Work on GGCAGAGCUCAACUCAGCGUCGCAAAGUGGCUGUGGCUAGAGUGCC yielded a self-cleavage of 0.08.
With GGCAGAGCUCAACUCAGCGUGGCAAAGUGGCUGUGGUUAGACCGCC the self-cleavage was 0.05.
Variant GGCAGAGCUCAACUCAUCGUGGCAAAGUGGCUCUGGCUAGCCUAGC has a self-cleavage of 0.
Work on GGCAGAGCUCAACUCAGCUUGGCAAAGUGGCUGUGCCUAGCCUGCC yielded a self-cleavage of 0.1.
With GGCAGAGCUCAACUCAUCGUGGCAAAGUGGCUGUGGCUAGACUGCA the self-cleavage was 0.02.
GGCAGAGCUCAACUCAGCGUAGCAAAGUGGCUGUAGCUAGACUGCC gave a self-cleavage of 0.25.
GGCAGAGCUCAACUCAGCGUGGCAACGUGGCUGUGGCUGGACUGCC gave a self-cleavage of 0.05.
With GGCAGAGCUCAACUCAGUGUGGCAAAGAGGCUGUGGCUAGAUUGCC the self-cleavage was 0.05.
Work on GGCAGAGCUCAACUCAGUGUGGCAAAGUGGCUGUGGGUAGACUACC yielded a self-cleavage of 0.22.
With GGCAGAGCUCAACUCAGCGUUGCAAAGUGGAUGUGUCUACACUGCC the self-cleavage was 0.06.
GGCAGAGCUCAACUCAGCGUCGCAAAGUGGCUGUCGCUAAACUGCC showed a self-cleavage of 0.03.
Variant GGCAGAGCUCAACUCAGCGUGGCAAGGUGGCUGAGGCUAGGCUGCC has a self-cleavage of 0.1.
Variant GGCAGAGCUCAACUCAGCGUGGGAAAGUUGCUGUGGCUAGACUGCC has a self-cleavage of 0.22.
GGCAGAGCUCAACUCAGCUUGGCCAAGUGGCUGUGGCUAGACUGCC gave a self-cleavage of 0.12.
For GGCAGAGCUCAACUCUGCGUGGCAAAGUGGCUGUGGCCAGACUGCC, the self-cleavage was 0.04.
Variant GGCAGAGCUCAACUAAGAGUGGCAAAGUGGCUGUGGCUAGACUGCC has a self-cleavage of 0.05.
GGCAGAGCUCAACUCAGCGUGGCAAGGUGGCUGGGGCUAGAGUGCC gave a self-cleavage of 0.02.
With GGCAGAGCUCAACUCAUCGUGGAAAAGUGGCUGUGGCUAGACUGCC the self-cleavage was 0.01.
GGCAGAGCUCAACUCAGCGUCGCAAAAUGGCUGUGGCUAGACUGCC gave a self-cleavage of 0.56.
GGCAGAGCUCAACUCUGCGUGGCAAAGUGGCUGGGGCUUGACUGCC showed a self-cleavage of 0.04.
For GGCAGAGCUCAACUCAGCGUGGCUAGGUGGCUGUGGCUAGACUGCC, the self-cleavage was 0.55.
GGCAGAGCUCAACUCAGCGUGGUAAAGUGGCUGUGGCUAGAUAGCC gave a self-cleavage of 0.05.
Work on GGCAGAGCUCAACUCAGCGUGCUAAAGUGGCUGUGGCUAGACUGCC yielded a self-cleavage of 1.13.
Work on GGCAGAGCUCAACUACGCGUGGCAGAGUGGCUGUGGCUAGACUGCC yielded a self-cleavage of 0.06.
Work on GGCAGAGCUCAACUCAGCGUGGGUAAGUGGCUGUGGCUAGACUGCC yielded a self-cleavage of 0.07.
For GGCAGAGCUCAACUCAGCGUGGAAAAGUAGGGGUGGCUAGGCUACC, the self-cleavage was 0.01.
Work on GGCAGAGCUCAACUCAGCAUGGCCAAGUGGCUGUGGAUAGACUGCC yielded a self-cleavage of 0.14.
Work on GGCAGAGCUCAACUCAGCGUGGCAAAGUGGCUGUGGCUCGACUGCG yielded a self-cleavage of 0.16.
Variant GGCAGAGCUCAACUCAGGGUGGCAAAGUGUCUGUGGAUAGACUGCC has a self-cleavage of 0.05.
For GGCAGAGCUCAACUCAGCCUGGCUAAGUGGCGGUGGCUCGACUGCC, the self-cleavage was 0.03.
Variant GGCAGAGCUCAACUCAUGGUGGCAAAGUGGCUGUGGCUAGACUGCC has a self-cleavage of 0.05.
GGCAGAGCUCAACUUCGCGUGGCAAAGUGGCUGUGGCUAGGCUGCC showed a self-cleavage of 0.35.
Variant GGCAGAGCUCAACUCAGCGUAGCAAAGUGGCUGUGGCUAGACGGCC has a self-cleavage of 0.
With GGCAGAGCUCAACUCAGCGUGGCAGAGUGGCUGUGCCUAGUCGGCC the self-cleavage was 0.01.
With GGCAGAGCUCAACUCAACGUGGCAAAGUGUCUGUGACUAGACUGCC the self-cleavage was 0.08.
Work on GGCAGAGCUCAACUCAUCGUGGCAAAGUGGCUGUGGCUAGAGUGCC yielded a self-cleavage of 0.09.
Variant GGCAGAGCUCAACUCAUCGUGGCAAAGUGGCUGUGGCUAGAUUGCC has a self-cleavage of 0.02.
GGCAGAGCUCAACUCAGGGUGGCAAAGUGCAUGUGGCUAGACUGCC gave a self-cleavage of 0.32.
In the case of GGCAGAGCUCAACUCAGCGUGGCAAAGUGGCUGUGGUUGGACUGCC, the self-cleavage is reported as 0.02.
GGCAGAGCUCAACUCAUCGUGGCAAAGUGUCUGUGGCUAGAAUGCC gave a self-cleavage of 0.24.
In the case of GGCAGAGCUCAACUCAGCGUGGCAAAAUGGCUGUGGCUAGAAUGCC, the self-cleavage is reported as 0.03.
Variant GGCAGAGCUCAACUCAGCGUGGCAGAGCGGCUGUUGCUAGACUGCC has a self-cleavage of 0.03.
GGCAGAGCUCAACUCAGCGUGGCCAAGUGGCAGUCGCUAGACUGCC showed a self-cleavage of 0.
GGCAGAGCUCAACUCAGCGUGGCAAAGUGGUUAUGGCUAGACUGCC gave a self-cleavage of 0.01.
With GGCAGAGCUCAACUCAGCGUGGCAAACAGGCUGUGGCUAGACCGCC the self-cleavage was 0.03.
For GGCAGAGCUCAACUCAGCGUGGCAAAGUGGUUGUGGCUAGACUGCA, the self-cleavage was 0.01.
Work on GGCAGAGCUCAACUCAGCGUAGCAAAGUGUCUGUGGCUAGACUGCC yielded a self-cleavage of 0.1.
GGCAGAGCUCAACUCAGCGUGGCAAAGUAGAUGUGGCUAGACUGCC gave a self-cleavage of 0.02.
Work on GGCAGAGCUCAACUCAACGUCGCAAAGUGUCUGUGGCUAGACUGCC yielded a self-cleavage of 0.09.
GGCAGAGCUCAACUCAGCGUGGCAACGGGGCUGUGGCUAGACUGCA showed a self-cleavage of 0.04.
Variant GGCAGAGCUCAACUCAGCGUGGGAACGUGGCUGUGGCUAGACUGCC has a self-cleavage of 0.42.
Work on GGCAGAGCUCAACUAAGCGUCGCAAAGUGGCUGUGGCUUGAGUGCC yielded a self-cleavage of 0.01.
GGCAGAGCUCAACUCAGCUUGGCAAAUUGGCUGUGGCUAGACUGCC gave a self-cleavage of 0.09.
